Values joined by “and” are separate entries in the source; they are usually repeats but may differ in a detail not shown here. Equal entries are not always repeated. Screen size: about 48,000 compounds; about 1,200 (2.5%) were called active. Another 2% or so got no clear call; they are omitted.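 How the source made its calls: active means activation of at least 60% and not above a set upper limit (about 1 call in 100 departs from these limits); inconclusive means activation of 40% to 60%, or above that upper limit; inactive means activation under 40%.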 Some of the results follow.

For this assay, the target named is Probable G-protein coupled receptor 32 (Homo sapiens) (UniProt O75388). In words: qHTS for Agonists of Human Resolvin D1 Receptor DRV1. Further: 0% is about no effect. The settings on record: CHO-K1 GPR32 beta-arrestin PathHunter luminescence, 90 min; at 76.9 µM; active compounds read high; zero percent set by DMSO-only wells. The gist of the method: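 CHO-K1 cells stably expressing ProLink-tagged GPR32 and Enzyme Activator-tagged beta-arrestin were seeded at 2,500 cells/well overnight, exposed to compounds for 90 min at 37 °C, then read by beta-Gal complementation chemiluminescence after 1 h detection reagent.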
Sequence of UniProt O75388 (O75388 whole entry, looked up): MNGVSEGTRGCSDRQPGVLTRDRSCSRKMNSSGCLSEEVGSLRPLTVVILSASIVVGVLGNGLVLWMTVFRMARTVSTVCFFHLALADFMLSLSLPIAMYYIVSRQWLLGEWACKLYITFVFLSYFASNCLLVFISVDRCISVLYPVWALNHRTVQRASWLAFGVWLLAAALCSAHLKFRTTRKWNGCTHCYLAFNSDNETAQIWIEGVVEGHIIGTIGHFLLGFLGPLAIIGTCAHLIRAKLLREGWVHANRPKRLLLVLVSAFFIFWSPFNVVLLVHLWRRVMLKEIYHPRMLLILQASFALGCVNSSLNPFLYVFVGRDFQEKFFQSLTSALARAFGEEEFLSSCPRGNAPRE
For `CC1CCN(S(=O)(=O)c2ccc3c(c2)N(CC(=O)NCc2ccccc2Cl)C(=O)CO3)CC1`, the activation was inactive: -6.34%. Then `Cc1ccccc1NC(=O)c1ccc(NC(=O)N2CCSc3ncccc32)cc1`, with inactive: -0.896%; and `COc1ccc(NCc2nc3ccccc3n2CCOc2ccccc2C)cc1`, with inactive: -15.5%; and `Cc1ccc(N(C)C(=O)Cn2nc(Cc3ccncc3)c3ccccc3c2=O)cc1C`, with inactive: -18.6%. Turning to `Cc1ccc(CNS(=O)(=O)c2ccc(F)c(C(=O)Nc3ccc(C)c(F)c3)c2)cc1`, the activation is inactive: 7.71%. For the compound `COCCn1c(C)cc(O)c(C(c2ccccc2)N2CCN(c3ccc(F)cc3)CC2)c1=O` (stereo not given), the activation was inactive: -0.271%.

Regarding `O=C(NCCS(=O)(=O)N1CCN(c2ccccc2F)CC1)c1cc(=O)c2ccccc2o1`, the activation is inactive: -12.1%.

On to `NCCCCCCCCCCN`, for which the activation was inactive: 2.25%. Under `O=C(Cn1cc(S(=O)(=O)Cc2ccc(F)cc2)c2ccccc21)NCCc1ccccc1` stands inactive: -9.39%; under `CCc1ccc(-n2nc3cc(C)c(NC(=O)c4cc(Cl)ccc4OC)cc3n2)cc1`, inactive: -19.9%. Then `Cc1ccc(NC(=O)c2ccc(NC(=O)N3CCSc4ncccc43)cc2)cc1Cl`, with inactive: 5.03%; and `Cc1ccc2c(=O)cc(C(=O)Nc3sc4c(c3C(=O)NCc3ccco3)CCC4)oc2c1C`, with inactive: 18.5%; and `COc1ccc(NS(=O)(=O)c2cc3[nH]c(=O)c(=O)[nH]c3cc2C)cc1OC`, with inactive: 6.37%. Then `COc1ccc(Nc2cc(C(=O)NCCc3ccccc3)c3ccccc3n2)cc1OC`, with inactive: 27.6%. With `COc1ccc(OCCn2c(C3CC(=O)N(c4ccc(F)cc4)C3)nc3ccccc32)cc1` (stereo not given), the activation is inactive: 30.9%. Under `Cc1ccc(NC(=O)c2c(N3CCCC3=O)c3cc(C)ccc3n2C)c(C)c1` stands inactive: 6.53%; under `CCC(C)NC(=O)Cn1c(=O)n(Cc2ccc(C(=O)NCCCOC)cc2)c(=O)c2ccccc21` (stereo not given), inactive: -5.1%. Under `COc1ccccc1Nc1cc(C)nc2nc(-c3ccccc3)nn12` stands inactive: -10.6%; under `Cc1ccc(CNC(=O)Cn2ncc3c(C)n(Cc4ccc(Cl)cc4)c(C)c3c2=O)cc1`, inactive: -1.47%; under `CCCCOC(=O)c1ccc(NS(=O)(=O)c2c(C)nc3scc(C)n3c2=O)cc1`, inactive: -9.61%. Under `CCCN(C(=O)Cn1ncc2c(=O)oc3ccccc3c21)c1cccc(C)c1` stands inactive: -0.16%; under `CC(C)c1ccc(NC(=O)CSc2ncc3c(n2)-c2ccccc2N(C)S3(=O)=O)cc1`, inactive: -7.92%. For the compound `Cc1ccc(Cl)c2sc(N3CCN(C(=O)C4CC4)CC3)nc12`, the activation is active: 73%. With `COC(=O)c1c(NC(=O)c2ccc(S(=O)(=O)N3CCCC(C)C3)cc2)sc2c1CCN(C(C)C)C2` (stereo not given), the activation was inactive: -2.32%. Then `CSc1ccc(CNCc2c(C(=O)O)c(C)n(Cc3ccc(F)cc3Cl)c2C)cc1`, with inactive: 13.1%; and `Cc1ccccc1Cn1cc(S(=O)(=O)c2ccc(Cl)cc2)c(=O)c2cc3c(cc21)OCO3`, with inactive: 15.4%. Regarding `Cc1ccccc1CNC(=O)c1c(C)oc2c1C1=NCCN1C=N2`, the activation is inactive: -12.1%. Under `Cc1c(NC(=O)c2nc3ccccc3n(C)c2=O)cccc1[N+](=O)[O-]` stands inactive: 13.2%; under `COc1cccc(N2CCN(C(=O)C3CCCN(S(=O)(=O)c4ccc(Br)s4)C3)CC2)c1` (stereo not given), inactive: 17.4%. Take `CCOc1ccc(CNC(=O)Cn2c(=O)c3cccn3c3ccc(F)cc32)cc1`: the activation is inactive: -7.65%.

In the case of `CCOc1ccc(OCC)c(NC(=O)C2CCCN(S(=O)(=O)c3ccc4c(c3)oc(=O)n4C)C2)c1` (stereo not given), the activation was inactive: -6.88%.

Consider `C#CCN(C)Cc1ccccc1`, for which the activation was inactive: 32.3% and inactive: -7.83%. Under `CCN1c2ccccc2-n2cccc2C12CCN(C(=O)Nc1ccccc1C(F)(F)F)CC2` stands inactive: -19.4%; under `O=C(Nc1ccc(F)c(Cl)c1)N1CCN(C(=O)c2nsc3ccccc23)CC1`, inactive: 10.9%. On to `Cc1cc(C)cc(-n2c(SCC(=O)N3CCc4ccccc43)nc3c([nH]c4ccccc43)c2=O)c1`, for which the activation is inactive: -0.795%. Consider `CC(=O)Nc1ccc(Nc2ncnc3c2c(-c2ccccc2)cn3-c2ccccc2)cc1`, for which the activation is inactive: -30.9%. Turning to `Cc1cccc(-c2nc(SCCCOc3ccccc3Cl)n3[nH]c(=O)cc3n2)c1`, the activation was inactive: -25.8%. Then `CCn1c(C(=O)N2CCC(C(=O)N3CCN(c4cccc(C)c4C)CC3)CC2)cc2sccc21`, with inactive: 16.7%; and `CCOc1ccc2nc(N3CCN(C(=O)CS(=O)(=O)c4ccc(F)cc4)CC3)sc2c1`, with inactive: 43.8%. `O=c1c2cc3c(cc2nc2sc(Nc4ccc(F)cc4F)nn12)OCO3`: the activation was inactive: 6.5%. With `Cn1nc(C(=O)N2CCN(c3ccc(Cl)cc3)CC2)c2c1-c1ccccc1SC2`, the activation was inactive: -14.1%.

As to `Cc1ccc(C)c(N2CCN(c3ncnc4c3nc3n4CCCCC3)CC2)c1`, the activation was inactive: -1.25%. Then `O=C(C1CCCN(S(=O)(=O)c2cccs2)C1)N1CCN(c2cccc(Cl)c2)CC1` (stereo not given), with inactive: 14.6%; and `NC(=O)CSc1nc2c(oc3ccccc32)c(=O)n1-c1ccccc1F`, with inactive: 8.23%; and `O=c1[nH]c2ccccc2c2ccccc12`, with inactive: -1.36%. With `c1ccc(CNc2nc3ccccc3c3nc(-c4ccccc4)nn23)cc1`, the activation is inactive: -8.02%. As for `Cn1c(=O)c2nc(SCC(=O)Nc3cc(Cl)ccc3Cl)n(C)c2n(C)c1=O`, the activation was inactive: -4.84%. With `COc1ccc(Cl)cc1NC(=O)N1CCC(CN2CCc3ccccc3C2)CC1`, the activation was inactive: -11.1%. For `CCOc1ccc(C(=O)NCC(c2ccco2)S(=O)(=O)c2ccc(C)cc2)cc1` (stereo not given), the activation was inactive: -19.2%. Under `COc1cccc(CNC(=O)CSc2ccc(-c3sc(-c4ccccc4)nc3C)nn2)c1` stands inactive: -6.22%; under `CCc1ccc(NC(=O)CC2C(=O)N(c3cccc(C)c3)C(=O)N2Cc2cccs2)cc1` (stereo not given), inactive: -14%. Then `Cc1ccc(OCC(=O)Nc2c(C(=O)c3ccccc3)oc3ccccc23)cc1C`, with inactive: -0.699%; and `CCCCn1c(=O)n(-c2ccc(Br)cc2F)c(=O)c2c3c(sc21)CN(C(C)=O)CC3`, with inactive: -14.3%; and `CCOC(=O)c1noc2nc(C)n(CC(=O)Nc3cc(Cl)ccc3OC)c(=O)c12`, with inactive: 3.13%. Under `COc1ccc(CNC(=O)Cn2c(SCC(=O)N(C)c3ccccc3)nc3ccccc32)cc1` stands inactive: 1.74%; under `Cc1csc2nc(COC(=O)c3ccc(NC(=O)COc4ccccc4F)cc3)cc(=O)n12`, inactive: -18%. Turning to `Cc1ccc(CNC(=O)C2CCN(S(=O)(=O)N3CCC(C)CC3)CC2)cc1`, the activation was inactive: -14.2%. Then `Oc1c(C(c2ccccc2)N2CCN(Cc3ccccc3)CC2)sc2nc(-c3ccco3)nn12` (stereo not given), with inactive: -13%. Under `CC1=C(C(=O)OCC2CCCCC2)C(c2ccc(F)cc2F)CC(=O)N1` (stereo not given) stands inactive: 13.2%; under `COc1ccccc1CNC(=O)C(=O)NCC(c1cccs1)S(=O)(=O)c1ccc(F)cc1` (stereo not given), inactive: -2.24%; under `COc1cc(Cl)c(C)cc1NC(=O)CCc1nc2cccnc2n1-c1ccccc1`, inactive: 1.98%. For `NC(=O)NC1N=C([O][Al])NC1=O` (stereo not given), the activation was inactive: -4.73%. Then `COc1ccc(NC(=O)Cn2c(SCc3cccc(Cl)c3)nc3ccncc32)c(OC)c1OC`, with inactive: -14%; and `CC(=O)Nc1nnc(SCc2cc(=O)c3cc(C)ccc3[nH]2)s1`, with inactive: 36%; and `CC1=C(C(=O)Nc2ccccc2)C(c2ccccc2)n2nc(-c3ccco3)nc2N1` (stereo not given), with inactive: 6.76%. Then `CCn1cc(C(=O)O)c(=O)c2ccc(C)nc21`, with inactive: 7.11% and inactive: 0.41%. Under `CCCCNC(=O)C1CCN(S(=O)(=O)c2cc(Br)cc3c2N(C(=O)CC)CC3)CC1` stands inactive: -6%.

As to `Cn1c(=O)cc(SCC(=O)NCc2ccc(F)cc2)c2ccc(Cl)cc21`, the activation was inactive: 13.5%. Under `COc1ccc(-c2nnc(SCC(=O)Nc3cccc(F)c3)s2)cc1` stands inactive: 1.85%; under `Cc1ccc(NCc2cccn2-c2nnc(N3CCCCCC3)s2)cc1`, inactive: -20.1%. Regarding `CCOc1ccccc1NC(=O)C(C)Sc1cc(-c2ccccc2)nc(C)n1` (stereo not given), the activation was inactive: -14.8%. Under `CCOc1ccccc1NC(=O)CCn1c(-c2ccc(OC)cc2)cc(C(C)=O)c1C` stands inactive: -12.5%; under `Nc1ncc(S(=O)(=O)NCc2cccc(Cl)c2)cn1`, inactive: -1.12%; under `O=C(Cn1c(=O)n2nc(-c3ccccc3)nc2c2ccccc21)Nc1ccccc1C(F)(F)F`, inactive: -1.14%. Take `Cc1cccc(/C=C/c2ccccc2)n1`: the activation is inactive: -6.82%. Then `CCc1ccc(-n2c(=O)c3c4c(sc3n(Cc3ccc(F)cc3)c2=O)CCCC4)cc1`, with inactive: 20.6%. On to `COc1ccc(CNC(=O)c2cccc(N3CCCS3(=O)=O)c2)cc1`, for which the activation was inactive: 26.1%. Under `O=C1[C@@H]2CSC(c3ccc(F)cc3)N2C(=O)N1c1ccc(Cl)cc1` (stereo not given in full) stands inactive: -1.6%; under `O=C(O)CCC(=O)OC[C@@H](NC(=O)C(Cl)Cl)[C@H](O)c1ccc([N+](=O)[O-])cc1`, inactive: -16.2%. Under `Cc1ccc2oc(=O)c3cnn(CC(=O)NCc4ccccc4Cl)c3c2c1` stands inactive: 2.73%. Consider `Cc1ccc(-c2nc(CCNC(=O)C(=O)Nc3ccc(C)c(C)c3)cs2)cc1`, for which the activation was inactive: 5.99%.

Take `Cc1ccc(C)n1-c1nnc(N2CCC(C(=O)NCc3ccccc3Cl)CC2)s1`: the activation is inactive: -24.2%.

On to `COc1ccc(S(=O)(=O)N(Cc2nc(-c3ccc(C)cc3)no2)C2CCCCC2)cc1`, for which the activation is inactive: -24.5%. Then `COc1ccc2cc(CCC(C)=O)ccc2c1`, with inactive: 30.7%; and `CC(=O)c1cc(-c2ccc(F)cc2)n(CCC(=O)NCc2ccccc2C)c1C`, with inactive: -9.72%.

These data come from PubChem BioAssay AID1346428 (National Center for Advancing Translational Sciences (NCATS), 2018).
